According to the antibiotic and cytotoxicity screens of Wong et al. (2023):
The other results are listed elsewhere or left out.

Test system: HSkMC (human skeletal muscle cells)
Experiment: cytotoxicity call (relative viability < 0.9)
Details: 10 µM

Row | Structure (SMILES) | cytotoxicity call
1 | CN1C(=O)CC(C)(c2ccccc2)C1=O (stereo not given) | inactive
2 | COC(=O)c1ccccc1S(=O)(=O)NC(=O)Nc1nc(C)c2c(n1)CCS(=O)(=O)C2 | inactive
3 | C[C@@H]1CN([C@H](C)CO)C(=O)c2cc(N(C)C)ccc2O[C@@H](C)CCCCO[C@@H]1CN(C)Cc1ccc(C(=O)Nc2ccccc2N)cc1 | inactive
4 | C[C@H]1CN([C@@H](C)CO)S(=O)(=O)c2ccc(C#CC3CC3)cc2O[C@@H]1CN(C)C(=O)Cc1ccncc1 | inactive
5 | COc1ccc(S(=O)(=O)N(C)C[C@@H]2OCCCC[C@H](C)Oc3ccc(NC(=O)NC4CCCCC4)cc3C(=O)N([C@@H](C)CO)C[C@H]2C)cc1 | inactive
6 | C[C@@H]1CN([C@H](C)CO)C(=O)c2ccccc2-c2ccccc2CO[C@H]1CN(C)C(=O)Nc1cccc(C(F)(F)F)c1 | inactive
7 | C[C@@H]1CN([C@@H](C)CO)C(=O)c2cccc(NC(=O)c3ccncc3)c2O[C@H]1CN(C)Cc1ccc(C(=O)O)cc1 | inactive
8 | COc1cccc(S(=O)(=O)N(C)C[C@@H]2Oc3ncc(-c4cccc(C(=O)N(C)C)c4)cc3C(=O)N([C@@H](C)CO)C[C@H]2C)c1 | inactive
9 | COc1cccc(S(=O)(=O)N(C)C[C@H]2Oc3ncc(C#CCN(C)C)cc3C(=O)N([C@@H](C)CO)C[C@H]2C)c1 | inactive
10 | C[C@@H]1CCCCO[C@H](CN(C)Cc2ccc(Cl)c(Cl)c2)[C@@H](C)CN([C@H](C)CO)C(=O)c2cc(N(C)C)ccc2O1 | inactive
11 | COc1ccc(S(=O)(=O)N(C)C[C@H]2Oc3ccc(NS(C)(=O)=O)cc3C(=O)N([C@@H](C)CO)C[C@@H]2C)cc1 | inactive
12 | Cc1ccc(S(=O)(=O)Nc2ccc3c(c2)C(=O)N([C@@H](C)CO)C[C@H](C)[C@@H](CN(C)C(=O)C2CCCCC2)OCCCC[C@@H](C)O3)cc1 | inactive
13 | COc1ccc(NC(=O)Nc2ccc3c(c2)CC(=O)N([C@@H](C)CO)C[C@H](C)[C@H](CN(C)Cc2ccc(-c4ccccc4)cc2)O3)cc1 | inactive
14 | O=c1nc(C(F)(F)F)[nH]c2nc[nH]c12 | inactive
15 | C[C@H]1CN([C@@H](C)CO)C(=O)Cc2cc(NC(=O)Cn3cnnn3)ccc2O[C@H]1CN(C)S(=O)(=O)c1ccc(Cl)cc1 | inactive
16 | N#Cc1c(N)n(CCN)c2nc3ccccc3nc12 | inactive
17 | CO[C@H]1CN(C)C(=O)c2ccc(NC(=O)Nc3ccc(Cl)cc3)cc2OC[C@H](C)N(C(=O)Nc2c(C)noc2C)C[C@@H]1C | inactive
18 | C[C@@H]1CCCCO[C@H](CN(C)Cc2ccncc2)[C@@H](C)CN([C@H](C)CO)C(=O)c2cc(NC(=O)c3ccccc3)ccc2O1 | inactive
19 | Cc1cc(C)c(-n2cccc2CN)c(C)c1 | inactive
20 | C[C@H]1CCCCO[C@@H](CN(C)C(=O)CCC(F)(F)F)[C@@H](C)CN([C@@H](C)CO)C(=O)c2cc(NC(=O)NC3CCCCC3)ccc2O1 | inactive

Row | Structure (SMILES) | cytotoxicity call
21 | C[C@H](CO)N1C[C@H](C)[C@H](CN(C)S(=O)(=O)c2cccs2)OCCCC[C@H](C)Oc2ccc(NC(=O)Nc3ccc4c(c3)OCO4)cc2C1=O | inactive
22 | C[C@@H]1CN([C@H](C)CO)C(=O)c2cc(NS(=O)(=O)c3ccc(Cl)cc3)ccc2O[C@@H]1CN(C)S(C)(=O)=O | inactive
23 | Nc1nc(F)nc2c1ncn2C1OC(COP(=O)(O)O)C(O)C1O (stereo not given) | inactive
24 | COc1cc2c3cc1Oc1cc(ccc1O)CC1c4c(cc(OC)c(O)c4Oc4ccc(cc4)CC3N(C)CC2)CC[N+]1(C)C.Cl.O.O.O.O.O.[Cl-] (stereo not given) | inactive
25 | CC(C)(C)OC(=O)C[C@H]1CC=CC[C@H](CC(=O)N(CCO)Cc2ccccc2)C(=O)N2CCC[C@@H]2COC1=O | inactive
26 | COc1ccc(S(=O)(=O)Nc2ccc3c(c2)CC(=O)N([C@H](C)CO)C[C@H](C)[C@H](CN(C)CC2CC2)O3)cc1 | inactive
27 | C[C@@H]1CN([C@H](C)CO)S(=O)(=O)c2ccc(C#CC(C)(C)O)cc2O[C@@H]1CN(C)C(=O)CN(C)C | inactive
28 | COc1ccc(NC(=O)N(C)C[C@H]2Oc3c(NC(=O)c4cc(C)nn4C)cccc3C(=O)N([C@H](C)CO)C[C@@H]2C)cc1 | inactive
29 | C[C@@H]1CN([C@H](C)CO)C(=O)CCCn2cc(nn2)CO[C@@H]1CN(C)C(=O)Nc1ccc(N2CCN(C)CC2)cc1 | inactive
30 | COc1ccc([C@@H]([C@H](Cc2ccccc2)OC(C)=O)N2C[C@H]3[C@@H]([C@@H](O)c4ccccc4)ON(C)[C@H]3[C@@H]2Cc2ccccc2)cc1 | inactive
31 | C[C@H]1CN([C@@H](C)CO)C(=O)c2cccc(NC(=O)c3nc4ccccc4s3)c2O[C@@H]1CN(C)S(C)(=O)=O | inactive
32 | C[C@@H]1CN([C@H](C)CO)C(=O)c2c(c3ccccc3n2C)-c2ccccc2CO[C@@H]1CN(C)C(=O)Nc1ccccc1C(F)(F)F | inactive
33 | Cc1ccc(S(=O)(=O)Nc2ccc3c(c2)C(=O)N([C@@H](C)CO)C[C@H](C)[C@@H](CN(C)Cc2ccncc2)OCCCC[C@H](C)O3)cc1 | inactive
34 | C[C@H](CO)N1C[C@H](C)[C@H](CN(C)Cc2ccc(Oc3ccccc3)cc2)OCc2ccccc2-c2ccccc2C1=O | inactive
35 | CC(C)(CO)[C@@H](O)C(=O)NCCC(=O)O | inactive
36 | C[C@@H]1CN([C@H](C)CO)C(=O)c2ccccc2-c2ccccc2CO[C@H]1CN(C)C(=O)Nc1ccc(-c2ccccc2)cc1 | inactive
37 | C[C@@H]1CN([C@@H](C)CO)C(=O)c2cc(NS(=O)(=O)c3cccs3)ccc2O[C@@H](C)CCCCO[C@@H]1CN(C)Cc1ccccc1 | inactive
38 | Cc1ccc(S(=O)(=O)Nc2ccc3c(c2)C(=O)N([C@H](C)CO)C[C@@H](C)[C@@H](CN(C)S(=O)(=O)c2ccc(C)cc2)OCCCC[C@H](C)O3)cc1 | inactive
39 | CO[C@@H]1CN(C)C(=O)c2cc(NS(C)(=O)=O)ccc2OC[C@H](C)N(C(=O)CN(C)C)C[C@@H]1C | inactive
40 | C[C@H](C(=O)N(C)C[C@H]1OCc2ccccc2-c2c(n(C)c3ccccc23)C(=O)N([C@H](C)CO)C[C@@H]1C)c1ccccc1 | inactive
